Results taken from the supplement of paper PMC3334620.
Whole data set: some 33,000 sequences, median “E-score (-0.5 to 0.5)” near -0.056, cut for the highest 2% near 0.38. This is one part of the list.

Each sequence was assayed against Stb4 (UniProt P50104) (assay: PBM E-score (8-mer binding enrichment) (E-score (-0.5 to 0.5)); higher = stronger / more preferred TF binding; most listed sequences are background and not binding sites). Details: protein concentration: 200 nM; construct: GST-DNA-binding domain.
Method in brief: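 GST-tagged yeast TFs (full-length or DNA-binding domain) were made by PURExpress in vitro transcription/translation and applied at about 100-200 nM to universal all-10-mer Agilent arrays. The arrays were made double-stranded by primer extension, on fresh or once-stripped slides. Bound protein was detected with fluorescent anti-GST, and scans were normalised with masliner. Each ungapped eight-base word, pooled with its reverse complement, received an E-score (modified Wilcoxon-Mann-Whitney statistic) from the Universal PBM Analysis Suite.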

| Sequence | PBM E-score |
| --- | --- |
| GCGGACCA | 0.0609 |
| TTGAGAAA | -0.263 |
| CTTGAACA | -0.151 |
| CAAGAGCC | 0.0369 |
| AAGCCGGA | 0.355 |
| AACGTCGC | -0.129 |
| ATTGGCAG | -0.138 |
| CAGCAAAG | -0.158 |
| TATCTTGA | -0.172 |
| ACGCTGCC | 0.0694 |
| GTCTCGAA | -0.255 |
| AGTCTCTC | -0.0527 |
| AAACAATA | 0.106 |
| GTTACGAA | 0.00692 |
| ACGTGCAA | -0.00192 |
| GAAACCAC | -0.143 |
| CAGCCCGC | -0.0714 |
| CAAACACG | -0.0796 |
| GACTAGAC | -0.264 |
| GCCGTTCC | 0.251 |
| TGCGCTAA | -0.124 |
| GGTAACAC | 0.0631 |
| CAGTGGTC | -0.00329 |
| CCGGTGCG | 0.213 |
| GGTCCTGA | -0.0152 |

| Sequence | PBM E-score |
| --- | --- |
| CAGTCACG | -0.091 |
| CCTTATAC | -0.195 |
| CCTGGTAG | -0.0625 |
| CACACGCA | -0.161 |
| CACACCGG | 0.116 |
| CCTAAGCC | -0.0686 |
| CAAACCAG | -0.234 |
| CCCGAACC | 0.414 |
| ACAGCTTG | -0.24 |
| ACTCCACT | -0.273 |
| CTGCCAGA | -0.112 |
| TAATGCGA | -0.116 |
| CTTTCACC | 0.0158 |
| CGCAGCTA | -0.117 |
| ATATACCG | 0.285 |
| AGTACACC | -0.105 |
| CTGCTGGC | -0.12 |
| AAATATTT | -0.0922 |
| ACCGTCCG | 0.306 |
| CCACTCTA | -0.211 |
| GACACTCA | -0.0571 |
| AATTTTCA | -0.101 |
| AAGCCCAT | -0.167 |
| AACATCAT | -0.244 |
| AAGGCCAA | -0.173 |

| Sequence | PBM E-score |
| --- | --- |
| AGACCTAT | -0.0162 |
| CCTATTGA | -0.076 |
| CTTACTAA | -0.176 |
| GATGAGAC | -0.0117 |
| CGGGTCAG | 0.307 |
| CGCGAAAG | -0.185 |
| CTGCCTTC | -0.148 |
| GCTCACCC | 0.0535 |
| ACAATCAT | 0.0445 |
| AAGCGAAG | -0.0993 |
| ATGTCTTG | 0.097 |
| AGTGAATG | 0.0927 |
| TACGATCA | -0.0761 |
| GCGCAAGA | -0.036 |
| ATAGCGCA | -0.283 |
| CGTGTATA | -0.0661 |
| CATCCAGC | -0.0946 |
| CCATGGCC | -0.199 |
| AGGCGTCC | -0.031 |
| GGCGGAAC | 0.356 |
| AACAAAAG | -0.145 |
| GAGCTAGA | -0.245 |
| GACTCTTA | -0.0225 |
| CCCTGAAC | 0.0103 |
| CTCTGAGA | -0.24 |

| Sequence | PBM E-score |
| --- | --- |
| ATTCATAG | -0.243 |
| CAATTGGC | -0.333 |
| CCGGAGCA | 0.324 |
| ACCGAACA | 0.313 |
| GCTTGTAC | 0.122 |
| AGCTCTGC | -0.239 |
| TGTACAAA | -0.0897 |
| AGAGTTAG | -0.0199 |
| CTGTATAA | -0.161 |
| AGCTTGCG | -0.13 |
| AATGTAGA | -0.118 |
| GACATAGA | -0.141 |
| TACCGCCA | 0.0746 |
| CTCAAAAG | -0.188 |
| CGTATGCC | 0.0723 |
| TCCATTAA | -0.0401 |
| GCGCCAGA | -0.145 |
| GTATCCAC | -0.0779 |
| TTAGCAAA | -0.0159 |
| AAAGTGCG | 0.049 |
| CTGAGAAG | -0.133 |
| ATTGCCCA | -0.184 |
| ACTAACCC | -0.05 |
| GACGGAGA | 0.187 |
| AGTCATCG | 0.0193 |

| Sequence | PBM E-score |
| --- | --- |
| TCGTGTAA | 0.109 |
| AAATTAAT | -0.0543 |
| TGACGCCA | -0.15 |
| GCCTTAGA | -0.0921 |
| CCTACACC | -0.11 |
| CATATGGA | -0.178 |
| GAGCCGAC | 0.296 |
| CGCCTATA | 0.0945 |
| CGGCAGAA | 0.315 |
| GGTCACGA | -0.207 |
| TGGAACCA | 0.0635 |
| CAAGGTGA | -0.153 |
| ATAACCGA | 0.388 |
| GCAGTGCC | -0.0171 |
| ATATGTCA | -0.067 |
| AGATTCCT | -0.216 |
| GCCTATAC | -0.132 |
| AAACGATT | -0.137 |
| CAGCGAGG | -0.219 |
| GCATCTGA | -0.0869 |
| CAAGTAAG | -0.26 |
| ACGAACCA | -0.151 |
| CCATTTGC | -0.0898 |
| ATAGCCAT | -0.0728 |
| AGTTGGGA | -0.101 |

| Sequence | PBM E-score |
| --- | --- |
| GAGTGAGA | 0.0876 |
| ATAGCTCG | 0.152 |
| CTACCAGA | -0.0851 |
| ACGACACA | -0.281 |
| CGCGTTCC | 0.245 |
| ATTCGACC | -0.194 |
| TGTAATAA | -0.181 |
| CTGATGAA | -0.359 |
| AACCTGTC | -0.08 |
| ATGCGTAC | 0.0213 |
| TCACAAGA | -0.198 |
| CGCCGAAC | 0.366 |
| GTTTGCGA | -0.155 |
| CGCAGCCA | 0.0301 |
| CTGTTTAC | -0.154 |
| ACTCTGCC | -0.191 |
| ACCGAGAA | 0.311 |
| CTCCTAAC | -0.259 |
| CATGGAAA | -0.032 |
| ACAGCAGG | -0.0442 |
| AATCATCA | -0.164 |
| CCACGCGG | -0.00071 |
| CCCATTAA | -0.202 |
| GAGTGGGA | -0.0992 |
| GCTATTTA | -0.05 |

| Sequence | PBM E-score |
| --- | --- |
| GAAGCATA | -0.0469 |
| ATGACGGA | 0.217 |
| ACGCACTG | -0.184 |
| AAAAGACA | 0.0104 |
| AACGTAGG | -0.0963 |
| AACACGTA | -0.0377 |
| GACCGTCC | 0.064 |
| CAAAGCTC | 0.0253 |
| CCAAACAG | -0.345 |
| GAGTAGAC | 0.0497 |
| GAGCGCTA | -0.149 |
| AGTGACAT | -0.243 |
| GCCAGGAA | -0.228 |
| AATTCATA | -0.153 |
| CCAGTTAA | 0.0132 |
| CCATAGAC | -0.22 |
| GTTATCCA | 0.0169 |
| AGACCTCA | -0.366 |
| AACCTGAC | -0.223 |
| AGGACTCA | -0.145 |
| AGGTACTC | -0.124 |
| CACGATCA | -0.203 |
